Test results taken from PubChem BioAssay AID504832 (National Center for Advancing Translational Sciences (NCATS), 2011).
The whole screen tested about 310,000 compounds, of which about 18,000 (5.8%) were called active. Inconclusive means that the source gave no clear call. Such entries were picked first, then a sample of the others. The call rests on the fitted dose curve; in most records, active means well fitted inhibition curve with a large enough effect; inconclusive means small, poorly fitted or top-dose-only effect, or another doubt; inactive means no such curve, though single readings can be large or run the other way. No potency is given beside an inconclusive call; the fits are too rough.

Assay: Primary qHTS for delayed death inhibitors of the malarial parasite plastid, 48 hour incubation
Settings: P. falciparum luciferase growth in erythrocytes; series mostly up to 28.7 µM; activity change, negative = inhibition: at the top concentration
How it was run: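 First compound was added to culture medium, then infected red cells at 0.1% parasitemia and 2% hematocrit (final). After incubation at 37 C under 5% CO2, luciferase detection reagent was dispensed and light output recorded.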
On the % scale 0 is the no-effect control and ±100 the full control effect; potency means the concentration at half of the fitted maximal effect; tags describe the fitted curve by direction and shape.

| Compound | Potency | activity change, negative = inhibition |
| --- | --- | --- |
| CS(=O)(=O)N(CC(=O)NCCSC1CCCCC1)c1ccc2c(c1)OCO2 | active: 5.22 µM | – |
| COc1cccc(/C=N/NC(=O)c2nc(-c3ccccc3)cc(-c3ccccc3)n2)c1 | active: 10.4 µM | – |
| COc1ccc(CNC(=O)CC2C(=O)NCCN2CC(C)(C)C)c(OC)c1 (stereo not given) | – | inactive: -7.65% |
| O=C(CCc1ccccc1)NNC(=S)NC(=O)c1ccc(Cl)cc1 | – | inactive: -13% |
| COc1ccc(/C=C/c2c(-c3ccc(OC)cc3)oc3ccccc23)cc1 | inconclusive [inhibitor, partial curve] | – |
| Cc1ccc2[nH]c(=O)c(C(c3nnnn3CCc3ccccc3)N3CCOCC3)cc2c1 (stereo not given) | inconclusive [inhibitor, single point] | – |
| CC(C)(C)c1ccc(C(=O)C2CCCN(C3CCC3)C2)cc1 (stereo not given) | inconclusive [inhibitor, single point] | – |
| O=C(CCCCCNc1nc(=S)[nH]c2ccccc12)NCCc1c[nH]c2ccccc12 | inconclusive [inhibitor, single point] | – |
| CCOC(=O)c1ccccc1NC(=O)COC(=O)CSc1ccccc1 | – | inactive: 0.235% |
| COc1ccc(/C=N/NC(C)(C)C)c(OC)c1 | – | inactive: -9.44% |
| COc1ccccc1NC(=O)c1ccc(N2CC3CC(C2)c2cccc(=O)n2C3)c(NC(=O)c2ccncc2)c1 (stereo not given) | inconclusive [inhibitor, partial curve] | – |
| COc1cc(/C=N/n2c(C)n[nH]c2=S)ccc1OCc1ccc(F)cc1 | inconclusive [inhibitor, single point] | – |
| COc1cc(Cl)ccc1OCc1cc(C(=O)NC(C)Cc2cnccn2)no1 (stereo not given) | – | inactive: 25.7% |
| C(=N\N1CCN(C2c3ccccc3-c3ccccc32)CC1)/c1ccncc1 | inconclusive [inhibitor, single point] | – |
| CC(Oc1ccc2c(-c3ccccc3)cc(=O)oc2c1)C(=O)NCc1ccccn1 (stereo not given) | – | inactive: -0.828% |
| CCN=c1scc(C)n1/N=C/c1cc(Br)c(O)c(OC)c1 | inconclusive [inhibitor, partial curve] | – |
| O=C(NCCc1cccs1)C1CC(c2cccc(F)c2)=NO1 (stereo not given) | inconclusive [inhibitor, partial curve, poor fit] | – |
| COc1cc(CCC(=O)N2CC(C)OC(C)C2)cc(OC)c1OC (stereo not given) | – | inactive: -2.79% |
| CCc1ccc(-c2cc(C)no2)cc1S(=O)(=O)N1CCCN(Cc2ccc(F)cc2)C1 | inconclusive [inhibitor, partial curve] | – |
| Cc1cc(C)nc(-n2nc(C)c3c(C(=O)O)cc(-c4cccc(Br)c4)nc32)n1 | inconclusive [inhibitor, partial curve] | – |
